Experiment [1] deals with T1, SERK4-FLAG (Arabidopsis thaliana) (UniProt Q9SKG5).
T1 sequence: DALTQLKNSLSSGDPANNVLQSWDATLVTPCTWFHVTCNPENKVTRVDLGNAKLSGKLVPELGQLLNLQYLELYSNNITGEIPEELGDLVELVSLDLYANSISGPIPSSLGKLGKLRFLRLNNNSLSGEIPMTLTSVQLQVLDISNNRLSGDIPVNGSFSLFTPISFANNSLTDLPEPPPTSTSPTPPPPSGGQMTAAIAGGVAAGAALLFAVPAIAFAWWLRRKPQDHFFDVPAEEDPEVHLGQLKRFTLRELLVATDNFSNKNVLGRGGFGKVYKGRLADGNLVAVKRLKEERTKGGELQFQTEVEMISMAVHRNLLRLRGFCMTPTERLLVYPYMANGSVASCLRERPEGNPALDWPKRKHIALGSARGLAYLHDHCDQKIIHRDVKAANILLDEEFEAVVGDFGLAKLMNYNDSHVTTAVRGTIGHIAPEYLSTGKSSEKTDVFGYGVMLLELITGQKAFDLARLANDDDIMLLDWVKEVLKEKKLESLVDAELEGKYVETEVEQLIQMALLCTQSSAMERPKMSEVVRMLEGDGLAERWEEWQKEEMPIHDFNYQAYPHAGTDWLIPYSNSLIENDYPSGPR
In words: co-IP; total proteins of 10-day-old Arabidopsis seedlings (pad4-1 and bon1-1 bon2-2 bon3-3 pad4-1), mock or eBL treated; anti-FLAG beads for SERK4-FLAG, α-SERK3 on IgG magnetic beads for SERK3; BRI1 detected with α-BRI1.

Amino acid sequences for entries named in this document (tags omitted). Residues count along the entry.
UniProt O22476, residues 24-1196: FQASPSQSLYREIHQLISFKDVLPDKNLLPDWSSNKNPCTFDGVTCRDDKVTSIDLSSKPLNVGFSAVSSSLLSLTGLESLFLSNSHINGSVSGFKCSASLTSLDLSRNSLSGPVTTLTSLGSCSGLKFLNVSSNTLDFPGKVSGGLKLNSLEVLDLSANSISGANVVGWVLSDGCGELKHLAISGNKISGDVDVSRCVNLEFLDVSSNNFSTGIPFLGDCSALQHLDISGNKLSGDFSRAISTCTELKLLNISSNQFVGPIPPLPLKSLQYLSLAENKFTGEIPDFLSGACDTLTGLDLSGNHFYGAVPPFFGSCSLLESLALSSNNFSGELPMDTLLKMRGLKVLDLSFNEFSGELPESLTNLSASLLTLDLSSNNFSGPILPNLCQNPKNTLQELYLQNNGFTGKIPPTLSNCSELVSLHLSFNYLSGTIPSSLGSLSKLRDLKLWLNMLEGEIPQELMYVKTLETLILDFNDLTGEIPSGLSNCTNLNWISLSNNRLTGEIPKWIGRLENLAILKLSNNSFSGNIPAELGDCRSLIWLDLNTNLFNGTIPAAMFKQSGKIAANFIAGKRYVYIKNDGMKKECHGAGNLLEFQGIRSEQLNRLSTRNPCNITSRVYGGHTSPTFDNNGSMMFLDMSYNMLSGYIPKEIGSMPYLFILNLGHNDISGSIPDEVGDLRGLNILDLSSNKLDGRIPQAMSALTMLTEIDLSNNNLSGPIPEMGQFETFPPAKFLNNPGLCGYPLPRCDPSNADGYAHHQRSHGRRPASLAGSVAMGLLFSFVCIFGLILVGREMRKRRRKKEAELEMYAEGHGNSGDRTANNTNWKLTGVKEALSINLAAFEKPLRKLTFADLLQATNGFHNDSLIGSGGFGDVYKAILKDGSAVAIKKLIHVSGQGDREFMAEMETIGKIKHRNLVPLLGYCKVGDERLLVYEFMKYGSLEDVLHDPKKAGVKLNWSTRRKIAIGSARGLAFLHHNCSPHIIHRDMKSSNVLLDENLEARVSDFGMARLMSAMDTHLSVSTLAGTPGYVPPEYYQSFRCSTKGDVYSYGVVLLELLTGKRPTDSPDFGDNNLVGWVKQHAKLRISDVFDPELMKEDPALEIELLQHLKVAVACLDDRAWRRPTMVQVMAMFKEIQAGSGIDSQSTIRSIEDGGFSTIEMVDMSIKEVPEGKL

In experiment [2] the target is T2, SERK3 (native, in Arabidopsis seedlings) (Arabidopsis thaliana (endogenous in seedlings)) (UniProt Q94F62).
T2 sequence: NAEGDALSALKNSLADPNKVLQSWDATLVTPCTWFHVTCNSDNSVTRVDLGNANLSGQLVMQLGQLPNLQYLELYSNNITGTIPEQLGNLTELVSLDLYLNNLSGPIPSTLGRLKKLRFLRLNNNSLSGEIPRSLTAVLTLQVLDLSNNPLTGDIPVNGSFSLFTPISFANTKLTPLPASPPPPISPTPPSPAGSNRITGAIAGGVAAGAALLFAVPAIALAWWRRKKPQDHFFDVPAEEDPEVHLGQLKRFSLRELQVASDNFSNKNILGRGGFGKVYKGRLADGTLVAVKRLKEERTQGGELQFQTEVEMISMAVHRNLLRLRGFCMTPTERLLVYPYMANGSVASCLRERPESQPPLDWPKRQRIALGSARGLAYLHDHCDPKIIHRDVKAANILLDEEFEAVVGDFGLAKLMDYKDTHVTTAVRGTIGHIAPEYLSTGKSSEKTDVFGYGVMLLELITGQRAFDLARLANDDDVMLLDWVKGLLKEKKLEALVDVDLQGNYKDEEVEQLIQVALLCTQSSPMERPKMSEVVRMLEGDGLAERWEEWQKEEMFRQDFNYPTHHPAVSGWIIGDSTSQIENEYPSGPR
The experiment is described as above.

Experiment [3] addresses T3, BON1-HA (Arabidopsis thaliana) (UniProt Q941L3).
T3 sequence: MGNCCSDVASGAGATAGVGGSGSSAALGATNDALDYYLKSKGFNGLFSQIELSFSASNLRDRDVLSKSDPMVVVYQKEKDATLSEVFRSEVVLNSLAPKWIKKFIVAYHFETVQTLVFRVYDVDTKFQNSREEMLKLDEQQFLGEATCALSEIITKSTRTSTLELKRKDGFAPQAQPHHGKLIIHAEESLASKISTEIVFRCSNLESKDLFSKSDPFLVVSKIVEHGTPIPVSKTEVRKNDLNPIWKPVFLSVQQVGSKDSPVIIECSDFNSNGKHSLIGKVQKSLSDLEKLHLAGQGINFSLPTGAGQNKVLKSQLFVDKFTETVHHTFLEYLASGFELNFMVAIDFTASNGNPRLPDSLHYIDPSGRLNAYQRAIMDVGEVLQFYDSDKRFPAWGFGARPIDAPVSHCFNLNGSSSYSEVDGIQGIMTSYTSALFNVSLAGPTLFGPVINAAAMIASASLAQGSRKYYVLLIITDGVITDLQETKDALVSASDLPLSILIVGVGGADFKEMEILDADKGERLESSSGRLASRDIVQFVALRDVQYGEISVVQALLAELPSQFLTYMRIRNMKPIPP
In words: co-IP; Arabidopsis Col-0 protoplasts co-transfected, 18 h; extracts incubated with anti-HA beads 4 h at 4 °C, washed four times with TBS; blots with anti-HA, anti-FLAG or anti-GFP.

Results are given in words; binding and its absence hold for the method and conditions named. Binding seen in cells or lysates may run through a third protein. Some results given as binding are weak or reduced against the parent protein; the word gives no strength. For part of these data: Where a sequence is shown, tags or fusion partners need not be part of it.

On to “BRI1 (native, in Arabidopsis seedlings) (from UniProt O22476 24-1196) (receptor)”, for which the binding entry in experiment [1] and in experiment [2] was “binds” in each case.

B1: SERK4-FLAG (receptor, UniProt Q9SKG5 34-620)
chain: T1 sequence
In the case of B1, the binding result in experiment [3] is recorded as “binds”.

(Values after paper PMC10923931.)
